The supplement of paper PMC11417369
± gives the standard deviation of the averaged measurements. This is one part of the list.

Tested on: PfAP2-EXP AP2 domain (GST-tagged)
Experiment: gcPBM binding intensity (ln(normalized median fluorescence intensity)); higher = stronger DNA binding
Procedure, shortened: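 Each value is the highest Masliner-normalised natural-log median intensity across replicate spots of either orientation of a probe. The probes were primer-extended double-stranded 36-bp intergenic genomic sequences on an Agilent 4 × 180k array, alongside negative controls, exposed for 1 h to GST-tagged P. falciparum DNA-binding domains expressed in E. coli. Bound protein was picked up with Alexa488 anti-GST antibody and scanned at 488 nm.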

Sequence | gcPBM binding intensity (ln)
TGTCTTATTTATATTACACACTATATGAAAAAATAT [CACACA_site6807] | 8.59 ± 0.45
TTAATATGAAAACTCTGTACCCAACCTTCTTATGGA [XGTACX_site2126] | 8.39 ± 0.4
TATATAAATATATAATGTACGTTTTAAAAATAATAT [XGTACX_site3881] | 8.71 ± 0.42
ATATATTAATATGTGTGTACTTAACCATTCATATGT [XGTACX_site7395] | 8.68 ± 0.42
TTAATATATAATAAATTTTTTTTTTTTTTTTTTTTT [CACACA_negctrl_site892] | 8.945 ± 0.021
CTTGGTAGTTTTTTCTTATAATCTAATTATTAATAA [CACACA_negctrl_site153] | 8.49 ± 0.42
TTTTAATAATATGGATGTACATAAAAATAAATAAAT [XGTACX_site7937] | 9.04 ± 0.38
TTAACCACTAAAAGTACACACATATATACCTATATA [CACACA_site6026] | 8.45 ± 0.28
ATATAATAAATGTAGGTGCATAAAAATATTTTGTTA [GTGCAC_site9780] | 8.82 ± 0.33
TAGTATTATTTTTTTTGTACATATAAATGTAAAATA [XGTACX_site5282] | 8.34 ± 0.27
TTTTTTTAAAATATGAGTACATAATATTGTAAAAAT [XGTACX_site6536] | 8.36 ± 0.37
AAAACATAAATACATACACACATAATATATATTAAG [CACACA_site4239] | 8.59 ± 0.51
ATACATATACACATTTGTACATATTCCTTTTTATCG [XGTACX_site1731] | 8.79 ± 0.29
TCTTGTTTTAATTTTTATATTATTATTTAGATATAT [CACACA_negctrl_site921] | 8.56 ± 0.37
TTATTTAAAATGAAAAGTACATATTACTTTCTCACA [XGTACX_site5043] | 8.21 ± 0.16
TACTAAATGATCATATGTACACATGTTTACTTTTTA [XGTACX_site1253] | 8.79 ± 0.57
AATATATATATATATATATATATTTCAATATATAAA [XGTACX_negctrl_site187] | 8.56 ± 0.092
ATGATAATTATTAAGGGTACATAAAAATATATCTAT [XGTACX_site8969] | 8.4 ± 0.33
ATTATTTAACATGTGGACACAAAAATTTAAGGGTTC [CACACA_negctrl_site1269] | 8.75 ± 0.4
TATAATTATTTTTTCACACATATGTATTTATATATA [CACACA_site4205] | 8.88 ± 0.43
AGATATATATATAGGTGTACTGGAATGAAATTGTTT [XGTACX_site8200] | 8.78 ± 0.37
AATATATTAAATATTACACACATACATTTAGTGGAA [CACACA_site8609] | 8.18 ± 0.34

Sequence | gcPBM binding intensity (ln)
TACTAAGAAAAGAACTGTACATAGAATATACCCAAG [XGTACX_site4757] | 8.56 ± 0.35
AATATCAAAAAAAAAAAAAAAAAAAAAAAAAAAAAA [CACACA_negctrl_site288] | 8.09 ± 0.3
AAGGGAAAAAAAAAAGCACACATACGTAAATATATA [CACACA_site7960] | 8.63 ± 0.61
TATTTCACACAGTATATATATATATATATATATATA [TGCATGCA_negctrl_site118] | 10.2 ± 0.38
AAAAGATAAAATTATGCACACATACGAATAATTTTA [CACACA_site8497] | 8.54 ± 0.44
AAATGGGAAATTTCATGTACTCATTTACCCTTATTA [XGTACX_site4740] | 8.22 ± 0.42
ATCTGACAAAAGTGTACACATATATATATATATATA [CACACA_site4814] | 10.2 ± 0.61
CACATAATGAAAAATACACACATGTATATTTATAAA [CACACA_site2736] | 8.36 ± 0.39
TTGAAGTATAATAAAGTGCAAAATTATAATGATCTT [GTGCAC_site9639] | 8.77 ± 0.41
GTTAATTTTTGTATAGTGCAAAAATATAATAGTATG | 8.945 ± 0.049
TGTTGGTATGTGAATGCATGCATATAAGTCTATCTG [TGCATGCA_site780] | 9.98 ± 0.099
TGGATATATGTAAAAATTGCAAGAAAGATAAAAGGA [CACACA_negctrl_site64] | 9.22 ± 0.44
TCTATGAATTAATATGCATGTAACGTATTTATACTT [TGCATGCA_site669] | 8.79 ± 0.33
ATTATGATATATATATGTACATATATATAATATAAT [XGTACX_site259] | 8.46 ± 0.33
TTTTATATATATTATACACACAAGGAAAAAAAAAAA [CACACA_site3677] | 8.69 ± 0.44
TTTTTTTTTTTCCTTACACACATATTTCATTTTATA [CACACA_site747] | 8.73 ± 0.37
TTTTTATTTTTTAGTAGTACACACTTTTTGAACCTT [XGTACX_site1091] | 8.79 ± 0.28
AAAAAAAAAAAAAGTGCACACTTTTAATATAAATAT [CACACA_site3314] | 8.635 ± 0.035
TATAAAAGGAAACACACACACATATATATATATATA [CACACA_site939] | 10.2 ± 0.4
TTATAATATAAAAAATGTACATTAAAAAAAAAGATT [XGTACX_site8950] | 8.9 ± 0.4
AAGTATCAAAAATAAAGTACATATTTTGTAGGCAGG [XGTACX_site1463] | 8.92 ± 0.28
CAAAAAATATATTTTTGTACTTATGTTTTTATTTTG [XGTACX_site5230] | 8.58 ± 0.31
